Values marked as one replicate rest on one cluster of the flow cell; about a third of the high ones do not repeat.
Test system: ATP
Test: switch fluorescence ratio, 500 uM ATP over buffer (Cy3 cluster intensity, sum of 5 cycles each) (fold (ratio)); higher = stronger signal-on switching upon ATP binding; sequences stand for … in TCGTCGGCAGCGTCAGATGTGTATAAGAGACAGTTTTTTTTTTTTTTTTTTTTTTTTT…TC
Conditions: aptamer strand: ATP DNA aptamer (quencher-CACCTGGGGGAGTATTGCGGAGGAAGG + anchor), 100 nM annealed; ATP concentration: 500 uM; one replicate
In short: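 The quencher-labelled ATP aptamer, at 100 nM, was annealed to Cy3-labelled switching-strand clusters on a modified Illumina MiSeq flow-cell. The clusters were imaged in selection buffer, then after 15 min with 500 uM ATP at 22 °C, and this buffer/ATP cycle ran five times with NaOH stripping and re-annealing between runs. Per-cluster fluorescence ratios, summed target-cycle over summed buffer-cycle Cy3 intensity, were averaged per switch-domain sequence. Clusters outside 100-1000 RFU were excluded.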
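Also: ATP exposure 15 min at 22 °C before imaging.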

| Sequence | switch fluorescence ratio |
| --- | --- |
| GAAACTGAGA | 0.986 |
| GATAAATAGT | 1.02 |
| CCGCGTTAA | 3.06 |
| TGGCCCAAGC | 1.01 |
| CCTTTGACGT | 1.12 |
| TACGTTTGAA | 1.02 |
| CTGGTATGTA | 1.01 |
| GATAATCG | 0.989 |
| AGGTCCGTCG | 1.04 |
| CTGATTGCGT | 0.993 |
| TTAATTCAGC | 0.983 |
| GGTGGCCGCT | 1.04 |
| CTGCGGGGCG | 1.01 |
| AGATTCGTAT | 1 |
| AGTCAGAGTT | 1 |
| AGCGTGTA | 1.02 |
| GCCTGGACTC | 1.02 |
| GTCTATTGAA | 0.962 |
| CGGCTATGTC | 1.05 |
| TGGTTGGTTT | 1.01 |
| CATATCTAAT | 1.02 |
| ACAAGGGCTG | 1.04 |
| ACGAGGTAGG | 1.05 |
| GATAAGAATA | 0.966 |
| ACTGTGCTCG | 1.06 |
| GTTTTATCAC | 1.01 |

| Sequence | switch fluorescence ratio |
| --- | --- |
| GATATACAGA | 1.04 |
| TCGGGCCCT | 0.994 |
| ACGGACTTGG | 1.08 |
| CTTATTCCGG | 1.03 |
| GTCTAACGCT | 0.978 |
| ATTCCTCCTT | 1.48 |
| GACTGGGCTG | 0.969 |
| TGCGAGAATA | 0.935 |
| CACTGTGGAT | 1.01 |
| ATGGCGCAG | 0.923 |
| CGATCCATGC | 1.39 |
| TTTACGTACA | 1.67 |
| TAGGTGTCCC | 1.02 |
| AGTCCATCTT | 1.02 |
| AATATTAACA | 1 |
| CCTACAGATT | 1.03 |
| AAAAACAGC | 0.976 |
| CCTCTTAGTT | 1.06 |
| TAGAAAAAAG | 0.991 |
| ACACACTAAA | 1.23 |
| CAACGAGTTC | 0.956 |
| CCTTCCTGGG | 1.9 |
| CGGCCGATTT | 1.05 |
| CGGTTGATGA | 0.988 |
| GATTTCAAG | 0.961 |
| GCACGCTTG | 1.04 |

| Sequence | switch fluorescence ratio |
| --- | --- |
| TGTCACCTTA | 0.991 |
| TGCGCTTACC | 1.45 |
| CGAGCTAATG | 1.15 |
| GGAGAGACTC | 0.832 |
| AGTAAGATC | 1.01 |
| AACCTAGTTT | 1.05 |
| AGAAGACTCC | 1.23 |
| TAAGTGGCG | 0.969 |
| CGTTTGATAC | 1.71 |
| GGGGAACGAT | 0.995 |
| AAATGTACAA | 1.09 |
| CGCACCCGGC | 1.03 |
| ACCAATCCTA | 1.03 |
| TCGAAAGATT | 0.988 |
| ACATCTCACT | 1.12 |
| TACTGCCGG | 1.1 |
| TGCTGCTAC | 1.77 |
| TCTCGGGCT | 1.02 |
| GGTTTAAGGA | 0.978 |
| GGGGTGCACC | 1 |
| GGATGGGCCA | 0.976 |
| ATCAGACTTT | 0.953 |
| AGGTCCGTTG | 0.999 |
| CAATACGGAA | 1.26 |
| TATGGTGGCT | 0.965 |
| ATCTGTGGCT | 1.02 |

| Sequence | switch fluorescence ratio |
| --- | --- |
| AGATTCGAGT | 0.954 |
| TGAGACTTCG | 0.957 |
| AGACAGCACT | 1.23 |
| GTGCAGGGCG | 0.97 |
| GCCGTTGAAG | 1.03 |
| TCCGGGAGTC | 1.25 |
| CCGTTTGCAC | 2.15 |
| TATAGTGAAT | 0.975 |
| TAGGGACATA | 1.01 |
| TGTCGACCGG | 0.952 |
| AGAGTATTGT | 0.979 |
| GTCAAAGAGG | 1 |
| CCTACTGGT | 1.02 |
| ACATGTCCCG | 1.01 |
| AACTGGATCC | 1.02 |
| GCCTGGTCGT | 0.989 |
| TGATCTACCT | 1.22 |
| CATGGGAGTC | 0.994 |
| TGATGCCATT | 1.01 |
| GCAGGAAGCT | 1.02 |
| CTCAGCAAAT | 2.77 |
| AGAGTCATAT | 1.01 |
| AAATGTCGGT | 1.02 |
| CCATCTTCAG | 1 |
| GGGAGTTTTT | 0.987 |
| ATACTAAGGC | 1.03 |

| Sequence | switch fluorescence ratio |
| --- | --- |
| TGCCACGGTT | 0.99 |
| GAGATACTGC | 0.991 |
| ATTCATATAG | 0.964 |
| TGATTGTAC | 1.08 |
| GTGAAAATCC | 1.07 |
| TGACTCAAGA | 1.19 |
| CACAACAACG | 1.07 |
| CGTCCTCTAA | 1.3 |
| AGAAACTGGG | 0.979 |
| AGGAACTTCA | 1.04 |
| AAGCCATCGT | 1.07 |
| GGGCCTGACG | 1.03 |
| CGCAACGTTG | 0.976 |
| CGGTGTGAG | 0.995 |
| CTTGGGCAAA | 1.06 |
| GACTGACTTC | 1.05 |
| AGATCGACTT | 1.03 |
| GCCGTTCATT | 1.04 |
| AAAAACAACG | 0.994 |
| GTCAAGAGGC | 1.11 |
| ATGAGGAACA | 0.974 |
| ACCTAATGGA | 1 |
| GGGAATTTTG | 0.962 |
| AAAGGCACAT | 1 |
| AAGATGCCGG | 0.961 |
| TGGGTTAGTT | 0.998 |

| Sequence | switch fluorescence ratio |
| --- | --- |
| ACTAGGCCAT | 1.01 |
| CTATAATTGT | 0.98 |
| GACGTGATCG | 1.01 |
| GGTCAAATAT | 0.982 |
| GCTAGCAACT | 1.01 |
| TAGACGCGCC | 0.982 |
| CAGTGGAGGT | 0.989 |
| GTGTGTGCTC | 0.921 |
| GCTTATCGCA | 1.05 |
| TAAAGCTCAT | 1.08 |
| TTGTTCGGAT | 0.971 |
| ATAACGCCTT | 1.07 |
| CAGTTGGAGG | 1.01 |
| CTCGGTGTCG | 1.02 |
| ACTTTTCTGC | 1.03 |
| AGATCTGTGT | 0.971 |
| GCCTTTGTGC | 0.952 |
| CGACCGAGA | 1.03 |
| ACTAGCGCAA | 5.22 |
| GACTCTTTGC | 1.07 |
| ACTATGAGCA | 1.1 |
| TAATCGCAAT | 4.35 |
| ATATCCCTAG | 1.01 |

Reference: the supplement of paper PMC10126150
